Experimental data as given in PubChem BioAssay AID1963576 (National Center for Advancing Translational Sciences (NCATS), 2024).
Among all 46,000 compounds or so, about 60 (0.1%) were called active. Roughly 3% stayed inconclusive and do not appear here. The call rests on the fitted dose curve; in most records, active means well fitted inhibition curve with a large enough effect; inconclusive means small, poorly fitted or top-dose-only effect; inactive means no such curve, though single readings can be large or run the other way. The list shows a part of the results.

Test: Primary qHTS assay for Inhibitors of ovarian cancer metastasis using an organotypic tumor microenvironment (TME) model. Further: nearly all actives have a fitted effect of over 65% in size.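 On activity change, negative = inhibition: plate controls were DMSO wells for no effect and tomatine positive control wells for full effect.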
Settings: SKOV3ip1-GFP adhesion/invasion on 3D omental model, fluorescence; series mostly up to 45.8 µM; activity change, negative = inhibition: at the top concentration
Procedure, shortened: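 A 3D layer of primary human omental fibroblasts, mesothelial cells, fibronectin and collagen I, grown 48 hr, received SKOV3ip1-GFP cells in serum-free medium plus compounds at 0.36-46 umol/L. After 2 hr RT and 16 hr 37 C, fixed adherent GFP cells were counted; normalized to DMSO and tomatine.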

outcome, inactive:
COc1ccc(-n2ncc3c(NC(C)(C)CO)ncnc32)cc1
CC(C)CC(=O)N1c2nc(C(C)C)nn2C2(CCCCC2)[C@@H]2CCCC[C@@H]21
Cc1cc(C)c(NC(=O)Cn2cc(S(=O)(=O)Cc3ccccc3F)c3ccccc32)c(C)c1
COC(=O)c1c(NC(=O)c2cc3ccccc3c(=O)o2)sc2c1CCCC2
CCOC(=O)c1ccc(CN(Cc2ccc(F)cc2)S(=O)(=O)c2ccc(F)c(C(=O)Nc3ccc(Cl)cc3F)c2)cc1
O=S(=O)(Nc1ccc(Br)cc1F)c1ccc2nc(-c3ccccc3)[nH]c2c1
COc1ccc(Br)c(C(=O)Nc2cc3c(cc2N2CCOCC2)n(C)c(=O)n3C)c1
O=C(c1ccc2c(c1)OCCO2)N(Cc1cccnc1)c1nc2c(Cl)cccc2s1
Cc1ccccc1-c1nn2c(=O)cc(CN3CCN(C(=O)/C=C/c4ccccc4)CC3)nc2s1
CCc1ccc(NC(=O)Cn2c(=O)n(CCC(=O)N3CCc4ccccc4C3)c(=O)c3ccccc32)cc1
CCn1c2ccccc2c2nnc(SCC(=O)Nc3ccccc3OC)nc21
COc1ccc(-c2cc(C(F)(F)F)n3nc(C(=O)OC(C)C)cc3n2)cc1
COc1ccccc1CNC(=O)c1cc(S(=O)(=O)N2CCCCCC2)cn1C
Cc1cccc(NC(=O)CSc2cn(CC(=O)N3CCC(C)CC3)c3ccccc23)c1C
CCc1cccc(NC(=O)c2cc(S(=O)(=O)N3CCCCCC3)cn2C)c1
CC(C)(C)C(=O)NC1CC(=O)N(c2ccc3c(c2)OCCO3)C1 (stereo unspecified)
COc1cccc(-c2cc(C(F)(F)F)n3nc(-c4ccc(C)cc4)cc3n2)c1
CC(C)NC(=O)Cc1csc2nc(-c3ccccc3)cn12
COc1cc2c(cc1OC)C(COc1ccc(F)cc1)N(C(=O)C(C)C)CC2 (stereo unspecified)
Cc1nc2nc(CNC(=O)c3cccc(F)c3)nn2c(C)c1CCC(=O)Nc1ccc(F)cc1
Cc1ccccc1C(=O)NCC(c1ccc(N(C)C)cc1)N1CCCC1 (stereo unspecified)
O=C(CCS(=O)(=O)c1ccc(Br)s1)Nc1c(F)cccc1F

Activity change, negative = inhibition, inactive:
Cc1ccccc1S(=O)Cc1ccc(C(=O)N2CCN(c3cccc(C)c3C)CC2)o1 (stereo unspecified) -11.6%
Cc1ccc2onc(CC(=O)N3CCN(c4ccc(F)cc4)CC3)c2c1 -13.1%
Cc1ccc(-c2c(CN3CCN(c4cccc(C)c4)C(C)C3)csc2C)cc1 (stereo unspecified) -1.73%
CCOc1ccc(CCNC(=O)c2cnc3sc(N(CC)CC)nn3c2=O)cc1OCC 12.8%
CCN(CC)CCNC(=O)c1c(C)oc2ncnc(N3CCOCC3)c12 9.36%
Cc1cccc(C)c1OCC(=O)Nc1ncn[nH]1 16.8%
Cc1c(Cl)cccc1NC(=O)CSc1ncc2c(n1)-c1ccccc1N(C)S2(=O)=O -3.17%
CC(C)c1ccc(NC(=O)c2cc3sc(Cl)cc3n2C)cc1 -9.18%
Cc1cccc(N(CC(O)Cn2c3ccccc3c3ccccc32)S(=O)(=O)c2ccc(F)cc2)c1 (stereo unspecified) -25.1%
O=C(NCCc1ccccc1)c1ccc2c(c1)N(Cc1ccc(F)cc1)C(=O)c1ccccc1S2(=O)=O 6.62%
COc1ccc(OC)c(CNS(=O)(=O)c2ccc3c(c2)CCCN3C(C)=O)c1 2.3%
COc1ccccc1NC(=O)N(Cc1nnc2n1CCCCC2)c1ccc(F)cc1 7.41%
COc1ccc(NC(=O)Cn2nnc(C(=O)NCCc3ccccc3)c2N)cc1 -0.79%
CC(=O)c1cccc(NC(=O)C(C)n2c(=O)cc(C)c3c(C)nn(-c4ccccc4)c32)c1 (stereo unspecified) 5.26%
COc1cccc(N2CCN(C(=O)c3cccc(-n4c(C)nc5cccnc54)c3)CC2)c1 10.2%
CCOc1ccc(NC(=O)c2c(NCc3cccnc3)sc3c2CCCC3)cc1 0.887%
CC1CCc2c(sc3nc(-c4cc5cc(Br)ccc5oc4=O)[nH]c(=O)c23)C1 (stereo unspecified) -4.82%
O=C(CCS(=O)(=O)c1cccc2nonc12)Nc1c(F)cccc1F -7.84%
Cc1cc(C)cc(NC(=O)N2CCC3(CC2)Oc2ccccc2C(=O)N3Cc2ccccc2F)c1 6%
COc1ccc(-c2nnc(SCC(=O)Nc3cccc(C(F)(F)F)c3)nc2-c2ccc(OC)cc2)cc1 -1.07%
C=Cc1ccc(Cn2c(C(=O)O)c(CNC3CCCCC3)c3ccc(C)cc32)cc1 -1.76%
COc1ccc(CCn2c(=O)c3cccnc3n(CC(=O)Nc3ccc(C)c(F)c3)c2=O)cc1OC 0.319%
CCc1nn2c(=O)cc(COc3ccc(/C=C(\C#N)C(=O)Nc4ccc(F)cc4)cc3OC)nc2s1 28.6%
CC(C)COc1ccc(C(=O)Nc2cc3nn(-c4ccccc4)nc3cc2Cl)cc1 1.9%
CCOc1ccc(OCC)c(NC(=O)C2CCN(S(=O)(=O)c3c(C)noc3/C=C/c3ccccc3F)CC2)c1 5.77%
COc1cccc(Cn2c(CNS(=O)(=O)c3ccc(F)c(Cl)c3)nc3cccnc32)c1 5.58%
O=C(COc1ccccc1)NCCc1csc(-c2ccc(Cl)cc2)n1 8.88%
CCOC(=O)c1[nH]c2c(c1Cc1ccccc1C)C(=O)CC(c1cc(OC)ccc1OC)C2 (stereo unspecified) 12.8%
CN1C(=O)Cc2cc(S(=O)(=O)N3CCN(c4ccc(Cl)cc4)CC3)ccc21 0.543%
CCOC(=O)c1ccc(NC(=O)C2CCN(S(=O)(=O)c3ccc4c(c3)CCCC(=O)N4)CC2)cc1 12.4%
CCOc1ccccc1CNC(=O)c1cc(-c2ccc(Cl)s2)nc2ccccc12 2.48%
O=S(=O)(NCC(c1cccs1)S(=O)(=O)c1ccccc1)c1ccc(F)cc1 (stereo unspecified) -13.1%
Cc1c(C2=CCN(S(=O)(=O)c3ccc(Cl)cc3)CC2)c2ccccc2n1CC(=O)N1CCCC1 16.9%
Cc1cc2c(n1-c1ccc(C(=O)NCCc3ccc(Cl)cc3)cc1)CCC(C)C2 (stereo unspecified) 4.17%
CCOC(=O)c1cccc(NC(=O)CC2C(=O)N(c3ccccc3)C(=O)N2Cc2ccco2)c1 (stereo unspecified) -9.4%
CCc1ccc2oc(C(=O)Nc3nc(-c4ccc(F)cc4)ns3)c(C)c2c1 -3.15%
CNC(=O)c1ccc(-c2nc(CN3CCc4ccccc43)c(C)o2)cc1 -13.2%
CC(=O)Nc1ccc(Nc2nc3ccc(Cl)cc3n3cnnc23)cc1 -3.76%
Cc1c(Cl)cccc1NC(=O)C(C)n1nc(C)c2c(C)n(-c3ccccc3)nc2c1=O (stereo unspecified) 1.51%
Cc1cccc(OCC(=O)Nc2ccc(OCc3cc(=O)n4cc(C)ccc4n3)cc2)c1 9.25%
CCC1CCCCN1C(=O)CSc1n[nH]c(-c2ccccc2)n1 (stereo unspecified) -12.4%
COc1ccc(N(Cc2nnc3n2CCCCC3)C(=O)Nc2ccc(Cl)cc2)cc1Cl 3.94%
O=C(CC1(O)C(=O)N(CCc2ccccc2)c2ccc(Br)cc21)c1ccccc1 (stereo unspecified) -1.19%
COc1ccc(OC)c(NC(=O)c2ccc3nc(C(C)C)oc3c2)c1 12.6%
Cc1cccc(N2CCN(S(=O)(=O)c3nnc(NC(=O)c4ccc(Cl)cc4)s3)CC2)c1 4.22%
CC(=O)c1cccc(NC(=O)Cn2c(-c3cncs3)nc3ccccc32)c1 5.16%
Fc1ccccc1-n1ncc2c1ncn1nc(COc3ccc(Cl)cc3)nc21 -0.662%
O=C1CC(c2nnc(Cc3ccc(F)cc3)o2)CN1c1ccccc1 (stereo unspecified) 8.64%
COc1ccccc1N1CCN(C(=O)c2cc3c(s2)-c2ccccc2OC3)CC1 -8.48%
COc1ccccc1NC(=O)c1sc2nc(C)c(C(=O)Nc3ccc(Cl)cc3)c(-c3ccc(Br)cc3)c2c1N -0.925%
Cc1ccccc1CN1CCC(CNC(=O)c2cc3ccc4cccnc4c3[nH]2)CC1 -30.1%
O=C1CCc2cc(S(=O)(=O)NC(C(=O)Nc3ccc(F)cc3)c3ccccc3)ccc2N1 (stereo unspecified) 13.6%
CCN(c1ccccc1)S(=O)(=O)c1ccc(NC(=O)c2cc(=O)c3c(C)cc(C)cc3o2)cc1 5.41%
CNS(=O)(=O)c1ccc(NC(=O)c2nc3nc(C)cc(C(F)F)n3n2)cc1 -9.89%
Cc1noc(Cn2c(=O)c3cc4c(cc3n(CC(=O)Nc3ccc(C(C)C)cc3)c2=O)OCO4)n1 -5.16%
CC(C)c1cnc2c(c1SCc1ccc([N+](=O)[O-])cc1)c(=O)n(C)c(=O)n2C -3.09%
O=c1n(Cc2ccccc2)nc2n1-c1ccccc1OC2 -10.9%
CCOc1ccc(NS(=O)(=O)c2ccc3[nH]cc(C(=O)N4CCCC4)c(=O)c3c2)cc1 -0.684%
Fc1ccc(Nc2nc(SCc3ccc(Cl)cc3)nc3ccccc23)cc1 -17.9%
COc1ccc(S(=O)(=O)N(Cc2nc(-c3ccccc3)no2)C2CCCCC2)cc1 -8.17%
C=C1C(=O)OC2C=C(C)CCC=C(C)CCC12 (stereo unspecified) -21.5%
COc1cc(C2CC(=O)N(c3ccc(C)c(Cl)c3)C3=C2C(=O)OC3)cc(OC)c1OC (stereo unspecified) -12%
O=S(=O)(NCC(c1ccco1)S(=O)(=O)c1ccccc1)c1cc(F)ccc1F (stereo unspecified) -10.9%
Cc1cccc(-c2noc(-c3cccnc3NCc3ccccc3Cl)n2)c1 0.637%
CNC(=O)C1CCC(Cn2c(=O)c3sccc3n(CC(=O)N3CCCCC3C)c2=O)CC1 (stereo unspecified) -10.6%
Cc1cc(N2CCN(c3ccccc3F)CC2)n2cnnc2n1 -2.22%
CCC(=O)N[C@H]1CC[C@H](C(=O)N(C)c2ccc(-c3nc4ccccc4o3)cc2)C1 1.35%
CCCCOc1ccc(NC(=O)CSc2ccc(C(=O)O)cn2)cc1 -1.72%
CCOC(=O)c1ccc(NC(=O)Nc2cccc(OCc3cc(=O)n4ccc(C)cc4n3)c2)cc1 -3.07%
COc1ccc(NC(=O)CCc2nc3cccnc3n2Cc2cccs2)c(OC)c1 6.57%
CC(C)CCSc1nc2c(c(=O)n(C)c(=O)n2C)n1Cc1ccccc1Cl 0.96%
O=C(NCCn1cc(SCc2ccc(C(F)(F)F)cc2)c2ccccc21)c1ccccc1F -3.52%
Cc1ccc(CN2C(=O)SC(Nc3ccccc3)C2=O)cc1 (stereo unspecified) 0.252%
COc1cccc(CNC(=O)CCn2ccc3cc(S(=O)(=O)N4CCCC4)ccc32)c1 2.61%
